Experimental data as given in PubChem BioAssay AID686978 (National Center for Advancing Translational Sciences (NCATS), 2013).
In all, about 420,000 compounds went through this assay and about 64,000 (15%) were called active. The inconclusive results got no clear call from the source; some entries with a clear call stand among them for comparison. The call rests on the fitted dose curve; in most records, active means well fitted inhibition curve with a large enough effect; inconclusive means small, poorly fitted or top-dose-only effect; inactive means flat fitted curve, though single readings scatter. No potency is given beside an inconclusive call; the fits are too rough.

Assay: qHTS for Inhibitors of human tyrosyl-DNA phosphodiesterase 1 (TDP1): qHTS in cells in absence of CPT; further: nearly all actives have a fitted effect of over 55% in size
Settings: DT40 Tdp1-/- hTDP1 cells, no CPT, ATP luminescence, 48 h; activity change, negative = growth inhibition: at 46.2 µM (top of the series) unless noted
In short: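 Luminescent ATP content (CellTiter-Glo) served as the growth readout. Knockout chicken DT40 cells expressing human TDP1 were exposed to compounds without camptothecin for a minimum 48 hr at 37 °C.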
On the % scale 0 is the no-effect control and ±100 the full control effect; potency means the concentration at half of the fitted maximal effect; tags describe the fitted curve by direction and shape.

For CC(C)C(=O)Nc1cccc(NC(=S)NC(=O)C(c2ccccc2)c2ccccc2)c1, which Potency is on record?
The Potency was inconclusive [inhibitor, single point].

For COc1ccc(CCN(C(=O)C(F)(F)F)C(C(=O)NC2CCCCC2)c2ccc(C)s2)cc1OC (configuration not stated), which Potency is on record?
Its Potency is active: 9.2 µM.

With CC(C)(C)NC(=O)C(c1ccc(C(F)(F)F)cc1)n1c(=O)c(-c2cc3ccccc3[nH]2)nc2ccccc21 (configuration not stated) as the compound, how does the Potency read?
The Potency was inconclusive [inhibitor, single point].

Which “activity change, negative = growth inhibition” value does the source give for COc1ccc(Cl)cc1S(=O)(=O)n1nnc2ccccc21 here?
The value was inactive: -10.2%.

With COc1ccc2c(C)cc(=S)[nH]c2c1 as the compound, how does the Potency read?
The Potency was inconclusive [inhibitor, single point].

With COc1cccc(-c2cnc3c(NC=O)cc(-c4ccncc4)cn23)c1 as the compound, how does the Potency read?
Its Potency is active: 4.61 µM.

For COc1ccc(C)cc1NC(=O)c1ccc(=O)n(Cc2ccccc2)c1, which Potency is on record?
Its Potency is active: 23.1 µM.

With O=C(Nc1ccc(S(=O)(=O)N2CCCc3ccccc32)cc1)C1CCCO1 (configuration not stated) as the compound, how does the Potency read?
The Potency was inconclusive [inhibitor, partial curve].

With Cc1[nH]c2ccccc2c1C(=O)C(=O)NCc1ccco1 as the compound, how does the “activity change, negative = growth inhibition” value read?
Its value is inactive: -12.8%.

With CCOC(=O)c1c(NC2OC(=O)c3c2ccc(OC)c3OC)sc(C(=O)OC(C)(C)C)c1C (configuration not stated) as the compound, how does the Potency read?
Its Potency is inconclusive [inhibitor, single point].

With CC(C)CCNC(=O)C1CCN(c2nc3ccc(Cl)cc3[nH]2)CC1 as the compound, how does the Potency read?
Its Potency is inconclusive [inhibitor, single point].

With CSc1ccc(C(=O)N2CCc3c(cnc(C)c3CNC(=O)c3cncs3)C2)cc1 as the compound, how does the Potency read?
Its Potency is inconclusive [inhibitor, partial curve].

For COC(=O)C1=C(C(=O)OC)[C@@H]2N(Cc3ccccc3)c3ccccc3[C@@]23C[C@@H](CO)N(C(=O)NC2CCCC2)C3=N1, which Potency is on record?
The Potency was inconclusive [inhibitor, single point].

With CCOC(=O)c1cc2c(=O)n3ccccc3nc2n(Cc2ccco2)c1=NC(=O)c1c(F)cccc1Cl as the compound, how does the Potency read?
The Potency was active: 20.6 µM.

With Cc1cc(Br)ccc1NC(=O)CN(C)C(=O)CCSc1ccc(F)cc1 as the compound, how does the Potency read?
The Potency was inconclusive [inhibitor, single point].

For Cc1ccc(C(C(=O)NCC2CCCO2)N(C(=O)c2snc(C(N)=O)c2N)c2ccc(C(C)C)cc2)o1 (configuration not stated), which Potency is on record?
Its Potency is active: 18.4 µM.

Which Potency does the source give for Cn1c(/C=C/c2cccc([N+](=O)[O-])c2)c([N+](=O)[O-])c(=O)n(C)c1=O here?
Its Potency is active: 14.6 µM.

Which Potency does the source give for COc1ccccc1N=Nc1c(O)[nH]c2ccc(Br)cc12 here?
Its Potency is inconclusive [inhibitor, single point].

With CCC1=NN(C(=O)CCc2ccccc2O)C(O)(C(F)(F)F)C1 (configuration not stated) as the compound, how does the Potency read?
Its Potency is inconclusive [inhibitor, partial curve].

For C/C(=N\Nc1nncc2ccccc12)c1ccc(Cl)c([N+](=O)[O-])c1, which Potency is on record?
The Potency was inconclusive [inhibitor, partial curve].

With CN(CC(=O)Nc1ccc(Cl)c(C(F)(F)F)c1)C(=O)c1cc(=O)[nH]c2ccccc12 as the compound, how does the Potency read?
Its Potency is inconclusive [inhibitor, single point].

Which Potency does the source give for CC(C)(C)c1ccc(C(=O)NNc2cc(N3CCCCC3)nc(N3CCCCC3)n2)cc1 here?
Its Potency is inconclusive [inhibitor, single point].

Which Potency does the source give for CNC(=O)C(Sc1nc(C)nc2c1oc1ccccc12)C(C)=O (configuration not stated) here?
The Potency was inconclusive [inhibitor, single point].

For Cc1cc(=O)[nH]c(N/N=C/c2c(C)nn(-c3ccccc3)c2C)n1, which Potency is on record?
The Potency was inconclusive [inhibitor, single point].

For CC[C@]12c3[nH]c4cc(CCC(=O)N(C)C)ccc4c3CCN1C(=O)[C@@H](CC(=O)NCCC1=CCCCC1)C[C@@H]2C(=O)N1CCN(C(=O)C2CC2)CC1, which Potency is on record?
Its Potency is inconclusive [inhibitor, partial curve].

For O=C1Nc2cc(C(=O)N3CCOCC3)ccc2S/C1=C/c1ccccc1F, which Potency is on record?
The Potency was inconclusive [inhibitor, single point].

For O=C(NCCS(=O)(=O)c1ccc(Br)cc1)c1ccccc1Cl, which “activity change, negative = growth inhibition” value is on record?
The value was inactive: -2.05%.

Which activity change, negative = growth inhibition does the source give for COc1cccc(CN2CCN(c3ccc(F)cc3)C2=O)c1 here?
The activity change, negative = growth inhibition was inconclusive: -32.6% [inhibitor].

Which Potency does the source give for COCCCNC(=O)C[C@H]1C[C@H](C(=O)N2CCCCC2)[C@@]2(CCc3ccccc3)c3[nH]c4ccc(Cl)cc4c3CCN2C1=O here?
The Potency was active: 4.61 µM.

With CCCNC(=O)C1(C)CCN(Cc2ccc(C)c3ccccc23)C1 (configuration not stated) as the compound, how does the Potency read?
The Potency was active: 23.1 µM.

For COc1ccc([N+](=O)[O-])cc1NC(=S)NC(C)=O, which Potency is on record?
Its Potency is inconclusive [inhibitor, single point].

For CC(C)(C)OC(=O)N1CCCC(C(=O)Nc2ccc(C(=O)NCCc3ccccc3)cc2)C1 (configuration not stated), which Potency is on record?
The Potency was inconclusive [inhibitor, single point].

For O=C(O)CCCNS(=O)(=O)c1ccc(NCc2ccccc2)c(C(=O)O)c1, which “activity change, negative = growth inhibition” value is on record?
The value was inactive: 8.61%.

With Cc1cccc(NC(=O)C(C)Oc2ccccc2C)n1 (configuration not stated) as the compound, how does the Potency read?
Its Potency is inconclusive [inhibitor, partial curve].

Which “activity change, negative = growth inhibition” value does the source give for CCCN(CC(=O)Nc1ccccc1C)C(=O)c1ccc(C)c(S(=O)(=O)N2CCCCC2)c1 here?
The value was inactive: -28.9%.

For CCCCCCCCN1C(=O)[C@H](CC(=O)N2CCN(C(=O)c3ccco3)CC2)C[C@@]2(C(=O)OCC)CCCC=C12, which Potency is on record?
Its Potency is inconclusive [inhibitor, single point].

Which “activity change, negative = growth inhibition” value does the source give for COC(=O)c1ccccc1NC(=O)c1ccccc1NS(C)(=O)=O here?
The value was inactive: -25.9%.

Which Potency does the source give for O=C(NNC(=O)c1ccc(Cl)cc1Cl)c1csc(-c2cccnc2)n1 here?
Its Potency is inconclusive [inhibitor, single point].

With O=S(=O)(NCC1(N2CCOCC2)CCCCC1)c1ccc(F)c(F)c1F as the compound, how does the Potency read?
The Potency was inconclusive [inhibitor, single point].

Which Potency does the source give for Cc1cc(C(=O)N/N=C/c2ccc([N+](=O)[O-])o2)c(C)o1 here?
Its Potency is active: 18.4 µM.

Which “activity change, negative = growth inhibition” value does the source give for O=C(Nc1cccc(N2C(=O)C3C4C=CC(C4)C3C2=O)c1)c1cccs1 (configuration not stated) here?
Its value is inactive: -21.8%.

With CC/C(=N\N=C(/CC)c1ccccc1N)c1ccccc1N as the compound, how does the Potency read?
Its Potency is active: 23.1 µM.
